Measured values: patent US7595299B2, “Peptides as NS3-serine protease inhibitors of hepatitis C virus” (priority 2000, dated 2009)
Where two headings read alike, the source gives them in different places. Starred links: 1 amine or outer side, 2 acyl side, 3 side chain; linkers in the order of their positions; H or OH if unused. Non-standard residues stand in square brackets, D forms with d. Residues, ends and D or L forms follow the SMILES beside them. ξ: configuration not given here. *: point of attachment. ξ(3-Amino-2-oxohex-5-enoyl) = C=CCC(N[*:1])C(=O)C(=O)[*:2]; Benzoyl(2-COOH-4,5-Cl2) = O=C(O)c1cc(Cl)c(Cl)cc1C(=O)*; Phenylacetyl(3-CH2COOH) = O=C(O)Cc1cccc(CC(=O)*)c1; X14 = O=C([C@@H](N[*:1])C1CC[S+]([O-])CC1)[*:2]; Gly(piperidin-4-yl) = N[C@H](C(=O)O)C1CCNCC1; Succinyl(3ξ-Ph) = O=C(O)C(CC(=O)*)c1ccccc1; Phe(4-F) = N[C@@H](Cc1ccc(F)cc1)C(=O)O; X11 = CC(C)(C)c1cc(C(=O)O)cc(C(=O)*)c1; Isobutyloxycarbonyl = CC(C)COC(=O)*; X2 = O=C(C(=O)[*:2])C(CC1CC1)N[*:1]; NMeAla(cPr) = CN[CH](CC1CC1)C(=O)O; X8 = O=C(OCC12CC3CC(CC(C3)C1)C2)*; X4 = CCCC(N[*:1])C(=O)C(=O)[*:2]; Ala(cPr) = N[CH](CC1CC1)C(=O)O; X6 = O=C(O)C(CCC(=O)*)c1ccccc1; AllylGly = C=CC[CH](N)C(=O)O; Chg = N[CH](C(=O)O)C1CCCCC1; Phg = N[CH](C(=O)O)c1ccccc1; X19 = CCCCC(CC(=O)*)C(=O)O; ξChg = NC(C(=O)O)C1CCCCC1; PhAc = O=C(Cc1ccccc1)*; Boc = CC(C)(C)OC(=O)*; ξL = CC(C)CC(N)C(=O)O; X3 = O=C(OC1CCCCC1)*; N(Me)OMe = CON(C)*; X20 = CC#CCOC(=O)*; OtBu = CC(C)(C)O*; Ms = CS(=O)(=O)*

Biological target: Recombinant heterodimeric HCV NS3/NS4A protease (strain 1a) (Hepatitis C virus genotype 1a, UniProt P27958)
Test: biochemical
[1] = HCV protease continuous assay, Table 1, read-out: Ki* Range
[2] = Table 3, solid phase compounds, read-out: Ki* CLASS

Row | SMILES | Ki [1] [nM] | also measured
1 | CON(C)C(=O)C(NC(=O)CNC(=O)C(=O)C(CC1CC1)NC(=O)C(CC1CC1)NC(=O)C(NC(=O)OCC(C)C)C1CCCCC1)c1ccccc1 (centres unmarked) [Example 113] (Isobutyloxycarbonyl-[Chg][Ala(cPr)][X2]G[Phg]-{N(Me)OMe}; configuration not given here) | < 100 | –
2 | CCCC(NC(=O)[C@H](C[C@@H](O)CO)NC(=O)C(NC(=O)OCC(C)C)C1CCCCC1)C(=O)C(=O)NCC(=O)NC(C(=O)O)c1ccccc1 (some centres unmarked) [Example 93] | > 1000 | –
3 | CONC(=O)C(NC(=O)CNC(=O)C(=O)C(CC1CC1)NC(=O)C(CC1CC1)NC(=O)C(NC(=O)OCC(C)C)C1CCCCC1)c1ccccc1 (centres unmarked) [Example 114] | < 100 | –
4 | CCCC(NC(=O)C(CC1SCCCS1)NC(=O)C(NC(=O)OCC(C)C)C1CCCCC1)C(=O)C(=O)NCC(=O)NC(C(=O)O)c1ccccc1 (centres unmarked) [Example 41] | 101 to 1000 | –
5 | CCCC(NC(=O)[C@H](CC(C)C)NC(=O)[C@@H](NC(=O)CCC(C(=O)O)c1ccccc1)C1CCCCC1)C(=O)C(=O)NCC(=O)N[C@H](C(=O)O)c1ccccc1 (some centres unmarked) [Example 18] (X6-[Chg]L[X4]G[Phg]-OH) | < 100 | –
6 | CCCC(NC(=O)[C@H](CC(C)C)NC(=O)[C@@H](NC(=O)CC(C(=O)O)c1ccccc1)C1CCCCC1)C(=O)C(=O)NCC(=O)N[C@H](C(=O)O)c1ccccc1 (some centres unmarked) [Example 16] ({Succinyl(3ξ-Ph)}-[Chg]L[X4]G[Phg]-OH) | < 100 | –
7 | CCCC(NC(=O)[C@H](CC(C)C)NC(=O)C(NC(=O)c1cc(C(=O)O)cc(C(C)(C)C)c1)C1CCCCC1)C(=O)C(=O)NCC(=O)N[C@H](C(=O)O)c1ccccc1 (some centres unmarked) [Example 98] (X11-[ξChg]L[X4]G[Phg]-OH) | < 100 | –
8 | CCCCC(CC(=O)N[C@H](C(=O)N[C@@H](CC(C)C)C(=O)NC(CCC)C(=O)C(=O)NCC(=O)N[C@H](C(=O)O)c1ccccc1)C1CCCCC1)C(=O)O (some centres unmarked) [Example 25] (X19-[Chg]L[X4]G[Phg]-OH) | < 100 | –
9 | CCCC(NC(=O)[C@H](Cc1ccc(F)cc1)NC(=O)[C@@H](NC(=O)OC(C)(C)C)C1CCCCC1)C(=O)C(=O)NCC(=O)N[C@H](C(=O)O)c1ccccc1 (some centres unmarked) [Example 21] (Boc-[Chg][Phe(4-F)][X4]G[Phg]-OH) | 101 to 1000 | –
10 | C=CCC(NC(=O)C(NC(=O)OCC(C)C)C1CCCCC1)C(=O)NC(CC=C)C(=O)C(=O)NCC(=O)NC(C(=O)OC(C)(C)C)c1ccccc1 (centres unmarked) [Example 95] (Isobutyloxycarbonyl-[Chg][AllylGly][ξ(3-Amino-2-oxohex-5-enoyl)]G[Phg]-OtBu; configuration not given here) | 101 to 1000 | –
11 | CC#CCOC(=O)NC(C(=O)NC(CC1CC1)C(=O)NC(CC1CC1)C(=O)C(=O)NCC(=O)NC(C(=O)O)c1ccccc1)C1CCCCC1 (centres unmarked) [Example 127] (X20-[Chg][Ala(cPr)][X2]G[Phg]-OH; configuration not given here) | < 100 | –
12 | CCCC(NC(=O)[C@H](CC(C)C)NC(=O)[C@@H](NC(=O)C(CC(C)C)NS(C)(=O)=O)C1CC[S+]([O-])CC1)C(=O)C(=O)NCC(=O)N[C@H](C(=O)O)c1ccccc1 (some centres unmarked) [Example 78] (Ms-[ξL][X14]L[X4]G[Phg]-OH) | 101 to 1000 | –
13 | CC(C)COC(=O)NC(C(=O)N(C)C(CC1CC1)C(=O)NC(CC1CC1)C(=O)C(=O)NCC(=O)NC(C(=O)OC(C)(C)C)c1ccccc1)C1CCCCC1 (centres unmarked) [Example 115] (Isobutyloxycarbonyl-[Chg][NMeAla(cPr)][X2]G[Phg]-OtBu; configuration not given here) | > 1000 | –
14 | CCCC(NC(=O)[C@H](CC(C)C)NC(=O)[C@@H](NC(=O)OCC12CC3CC(CC(C3)C1)C2)C1CCCCC1)C(=O)C(=O)NCC(=O)N[C@H](C(N)=O)c1ccccc1 (some centres unmarked) [Example 3] (X8-[Chg]L[X4]G[Phg]-NH2) | > 1000 | –
15 | CCCC(NC(=O)[C@H](CC(C)C)NC(=O)[C@@H](NC(=O)Cc1cccc(CC(=O)O)c1)C1CCCCC1)C(=O)C(=O)NCC(=O)N[C@H](C(=O)O)c1ccccc1 (some centres unmarked) ({Phenylacetyl(3-CH2COOH)}-[Chg]L[X4]G[Phg]-OH) | – | Ki [2]: 101 to 1000 nM
16 | CC(C)COC(=O)NC(C(=O)NC(CC1CC1)C(=O)NC(CC1CC1)C(=O)C(=O)NCC(=O)NC(C(=O)O)c1ccccc1)C1CCCCC1 (centres unmarked) [Example 96] (Isobutyloxycarbonyl-[Chg][Ala(cPr)][X2]G[Phg]-OH; configuration not given here) | < 100 | –
17 | CCCC(NC(=O)[C@H](CC(C)C)NC(=O)[C@@H](NC(=O)OC1CCCCC1)C1CCCCC1)C(=O)C(=O)NCC(=O)N[C@H](C(=O)O)c1ccccc1 (some centres unmarked) (X3-[Chg]L[X4]G[Phg]-OH) | – | Ki [2]: 101 to 1000 nM
18 | CCCC(NC(=O)[C@H](CC(C)C)NC(=O)[C@@H](NC(=O)c1cc(Cl)c(Cl)cc1C(=O)O)C1CCNCC1)C(=O)C(=O)NCC(=O)N[C@H](C(=O)O)c1ccccc1 (some centres unmarked) [Example 47] ({Benzoyl(2-COOH-4,5-Cl2)}-[Gly(piperidin-4-yl)]L[X4]G[Phg]-OH) | > 1000 | –
19 | CC(C)COC(=O)NC(C(=O)NC(CC1CC1)C(=O)NC(CC1CC1)C(=O)C(=O)NCC(=O)NC(C(N)=O)c1ccccc1)C1CCCCC1 (centres unmarked) [Example 106] (Isobutyloxycarbonyl-[Chg][Ala(cPr)][X2]G[Phg]-NH2; configuration not given here) | < 100 | –
20 | CC(C)(C)OC(=O)C(NC(=O)CNC(=O)C(=O)C(CC1CC1)NC(=O)C(CC1CC1)NC(=O)C(NC(=O)Cc1ccccc1)C1CCCCC1)c1ccccc1 (centres unmarked) [Example 131] (PhAc-[Chg][Ala(cPr)][X2]G[Phg]-OtBu; configuration not given here) | – | Ki: > 1000 nM
